Source: PMC9636508
Results are given in words; binding and its absence hold for the method and conditions named. For some assays here: In cells and extracts the contact can be indirect. Some binding calls cover weakened binding; strength is not graded here.

Sequences of proteins named here, by UniProt entry; tags and fusion partners are left off. A change or cut given only in a name is not applied to a line headed by its entry. A line that says so, or that is headed by a name, gives the form on record, which may keep a tag or linker. Residues count along the entry.
UniProt Q9UNF0: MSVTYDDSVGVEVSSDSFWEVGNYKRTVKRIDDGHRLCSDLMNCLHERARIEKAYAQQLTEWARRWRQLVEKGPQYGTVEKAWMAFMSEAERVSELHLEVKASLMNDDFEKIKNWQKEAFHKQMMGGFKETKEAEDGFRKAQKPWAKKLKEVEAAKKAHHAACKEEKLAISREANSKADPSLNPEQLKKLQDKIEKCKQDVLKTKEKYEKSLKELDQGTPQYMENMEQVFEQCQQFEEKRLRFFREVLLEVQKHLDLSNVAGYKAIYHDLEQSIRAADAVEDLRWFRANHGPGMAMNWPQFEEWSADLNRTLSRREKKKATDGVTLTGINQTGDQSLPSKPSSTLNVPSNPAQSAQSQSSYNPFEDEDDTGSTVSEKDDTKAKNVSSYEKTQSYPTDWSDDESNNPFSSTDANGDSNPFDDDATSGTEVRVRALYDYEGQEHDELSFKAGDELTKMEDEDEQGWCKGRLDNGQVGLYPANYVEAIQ
GST-SH3 (GST-fused SH3 domain of PACSIN2): residues 430-486 of Q9UNF0
UniProt Q53SF7: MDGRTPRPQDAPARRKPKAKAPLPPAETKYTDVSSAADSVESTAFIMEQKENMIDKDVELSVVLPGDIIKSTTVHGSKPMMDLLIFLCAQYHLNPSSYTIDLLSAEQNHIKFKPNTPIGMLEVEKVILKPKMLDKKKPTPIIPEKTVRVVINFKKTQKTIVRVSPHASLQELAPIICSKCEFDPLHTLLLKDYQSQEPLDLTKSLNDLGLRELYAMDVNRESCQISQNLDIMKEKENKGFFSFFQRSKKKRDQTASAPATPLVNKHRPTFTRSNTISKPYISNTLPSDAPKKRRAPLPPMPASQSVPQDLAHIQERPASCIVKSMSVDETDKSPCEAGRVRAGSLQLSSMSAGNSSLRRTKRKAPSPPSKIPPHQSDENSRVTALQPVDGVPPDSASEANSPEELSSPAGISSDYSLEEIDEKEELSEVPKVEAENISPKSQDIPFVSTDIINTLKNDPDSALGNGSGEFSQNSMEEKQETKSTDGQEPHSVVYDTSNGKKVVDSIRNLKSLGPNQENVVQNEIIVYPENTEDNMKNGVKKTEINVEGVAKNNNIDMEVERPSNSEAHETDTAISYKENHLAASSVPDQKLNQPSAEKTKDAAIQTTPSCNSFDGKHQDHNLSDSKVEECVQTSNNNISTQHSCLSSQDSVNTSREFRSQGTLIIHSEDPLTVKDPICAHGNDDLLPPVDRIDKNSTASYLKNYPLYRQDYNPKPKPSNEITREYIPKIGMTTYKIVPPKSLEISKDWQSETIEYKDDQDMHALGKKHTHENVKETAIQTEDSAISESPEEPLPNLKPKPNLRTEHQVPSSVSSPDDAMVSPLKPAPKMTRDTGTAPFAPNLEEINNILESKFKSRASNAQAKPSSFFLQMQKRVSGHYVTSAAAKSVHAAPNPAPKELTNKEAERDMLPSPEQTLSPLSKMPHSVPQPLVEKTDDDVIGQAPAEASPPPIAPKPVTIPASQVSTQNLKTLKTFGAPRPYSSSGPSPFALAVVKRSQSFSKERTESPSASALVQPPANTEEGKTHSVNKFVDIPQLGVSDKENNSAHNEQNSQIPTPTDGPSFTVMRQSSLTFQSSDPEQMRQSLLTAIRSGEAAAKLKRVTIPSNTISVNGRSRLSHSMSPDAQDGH

Experiments:
[1] = biological target: T1, SH3BP1 wild type, overexpressed (UniProt Q9Y3L3); assay: co-IP; K562 cells transfected with expression plasmids, lysed after 24 h in NETN buffer (150 mM NaCl, 0.5 mM EDTA, 50 mM Tris pH 7.5, 0.5% NP-40); streptavidin-coated beads or protein A-agarose with primary antibody; western blot
T1 sequence: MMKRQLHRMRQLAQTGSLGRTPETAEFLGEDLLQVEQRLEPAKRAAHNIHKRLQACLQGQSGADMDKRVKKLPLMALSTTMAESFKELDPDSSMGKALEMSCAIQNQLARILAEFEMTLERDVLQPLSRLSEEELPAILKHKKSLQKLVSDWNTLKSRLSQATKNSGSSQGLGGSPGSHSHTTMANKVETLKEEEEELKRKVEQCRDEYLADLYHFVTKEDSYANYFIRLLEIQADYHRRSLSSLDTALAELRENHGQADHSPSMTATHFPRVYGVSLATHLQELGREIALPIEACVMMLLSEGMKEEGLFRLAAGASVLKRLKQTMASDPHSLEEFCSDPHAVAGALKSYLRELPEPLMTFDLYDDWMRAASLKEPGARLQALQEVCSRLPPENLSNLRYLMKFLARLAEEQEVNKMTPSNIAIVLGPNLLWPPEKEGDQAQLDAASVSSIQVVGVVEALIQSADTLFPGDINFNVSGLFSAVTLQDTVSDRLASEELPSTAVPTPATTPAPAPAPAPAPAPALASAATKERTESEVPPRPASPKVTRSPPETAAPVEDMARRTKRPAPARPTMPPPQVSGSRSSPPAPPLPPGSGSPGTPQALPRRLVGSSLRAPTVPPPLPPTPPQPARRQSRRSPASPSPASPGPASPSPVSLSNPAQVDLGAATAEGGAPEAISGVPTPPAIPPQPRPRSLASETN

[2] = biological target: PACSIN2 (endogenous) (human (endogenous in K562)) (UniProt Q9UNF0); assay: co-IP; endogenous proteins; K562 cells
[3] = biological target: PACSIN2 SH3 domain (residues 430-486), purified (human) (UniProt Q9UNF0); assay: NMR titration; 1H-15N HSQC, 298 K; unlabelled Cobll1-NT and SH3BP1-CT added to 50 uM 15N-labelled PACSIN2 SH3 domain (1:0:0, 1:0:1, 1:1:0, 1:1:1; replacement titration); 50 mM sodium phosphate, 100 mM NaCl, 1 mM TCEP, pH 6.3; both purified
[4] = biological target: GST-SH3 (GST-fused SH3 domain of PACSIN2) (human) (UniProt Q9UNF0); assay: pull-down; GST pull-down with the GST-fused SH3 domain of PACSIN2; methods not shown
[5] = biological target: PACSIN2 wild type, overexpressed (human) (UniProt Q9UNF0); assay: co-IP; K562 cells transfected with expression plasmids, lysed after 24 h in NETN buffer (150 mM NaCl, 0.5 mM EDTA, 50 mM Tris pH 7.5, 0.5% NP-40); streptavidin-coated beads or protein A-agarose with primary antibody; western blot

Question: For “PACSIN2 wild type, overexpressed (from UniProt Q9UNF0 1-486)”, which binding [1] is on record?
Answer: binds

Question: With “Cobll1 (endogenous) (from UniProt Q53SF7 1-1128)” as the substance, how does the binding [2] read?
Answer: binds

Question: For “Cobll1-NT (N-terminal region of Cobll1, residues 175-370) (from UniProt Q53SF7 175-370) (domain or fragment)”, which binding [3] is on record?
Answer: binds

Question: “Cobll1 wild type, overexpressed (from UniProt Q53SF7 1-1128)” was tested. Which binding [4] did it give?
Answer: binds

Question: And the binding [5]?
Answer: binds
